In publication PMC4336329 (PLoS ONE, 2015):
Among all 310,000 compounds or so, about 14,000 (4.5%) showed an effect of 50% or more. Effects have a minus sign here. The list shows a part of the results.

What follows are compounds tested against human ether-à-go-go-related gene (hERG) potassium channel (human, UniProt Q12809) (assay: primary screen, population patch clamp on CHO cells stably expressing hERG).
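Further: peak tail current of the secondary pulse compared with the same well before compound.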

Sequence of human ether-à-go-go-related gene (hERG) potassium channel (Q12809 whole entry, looked up): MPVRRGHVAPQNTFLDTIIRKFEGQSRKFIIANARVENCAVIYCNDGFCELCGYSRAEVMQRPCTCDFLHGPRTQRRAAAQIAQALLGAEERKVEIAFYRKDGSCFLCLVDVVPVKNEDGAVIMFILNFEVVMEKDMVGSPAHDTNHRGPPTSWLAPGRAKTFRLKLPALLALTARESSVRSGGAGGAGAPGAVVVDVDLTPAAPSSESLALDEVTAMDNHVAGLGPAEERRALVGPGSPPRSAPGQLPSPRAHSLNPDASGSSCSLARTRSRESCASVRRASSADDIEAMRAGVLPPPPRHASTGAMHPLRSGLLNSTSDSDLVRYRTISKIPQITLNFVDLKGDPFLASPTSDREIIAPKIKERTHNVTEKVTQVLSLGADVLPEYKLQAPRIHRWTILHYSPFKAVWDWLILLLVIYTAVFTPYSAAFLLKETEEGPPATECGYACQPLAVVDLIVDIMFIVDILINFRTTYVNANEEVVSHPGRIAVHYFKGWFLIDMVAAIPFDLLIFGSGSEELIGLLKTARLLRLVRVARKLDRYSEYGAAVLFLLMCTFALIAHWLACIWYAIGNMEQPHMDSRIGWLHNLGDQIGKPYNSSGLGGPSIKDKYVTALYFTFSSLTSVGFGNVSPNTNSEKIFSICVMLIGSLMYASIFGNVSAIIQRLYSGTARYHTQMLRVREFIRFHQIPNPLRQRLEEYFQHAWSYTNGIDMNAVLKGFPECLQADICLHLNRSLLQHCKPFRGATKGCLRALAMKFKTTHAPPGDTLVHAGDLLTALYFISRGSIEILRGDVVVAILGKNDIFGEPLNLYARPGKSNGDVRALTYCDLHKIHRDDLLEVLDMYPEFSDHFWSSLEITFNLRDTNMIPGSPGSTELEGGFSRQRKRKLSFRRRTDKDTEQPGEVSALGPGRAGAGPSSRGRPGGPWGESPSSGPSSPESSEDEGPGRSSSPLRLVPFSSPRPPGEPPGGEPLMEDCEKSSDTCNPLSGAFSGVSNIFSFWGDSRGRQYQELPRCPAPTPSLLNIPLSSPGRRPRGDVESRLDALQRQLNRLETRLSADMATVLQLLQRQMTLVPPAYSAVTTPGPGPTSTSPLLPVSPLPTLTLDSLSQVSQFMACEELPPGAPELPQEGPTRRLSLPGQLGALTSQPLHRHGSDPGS

Row | SMILES | hERG current change (%, negative = inhibition) at 10uM
1 | COC(=O)c1cc(C(=O)N2CCc3ccccc32)cc([N+](=O)[O-])c1 | -9.72%
2 | CCCN(C(=O)c1ccco1)c1nnc(-c2ccncc2)s1 | -20.9%
3 | COc1ccc(OC)c(NC(=O)N[C@H](Cc2ccccc2)C(=O)NN)c1 | 12.1%
4 | COc1ccc(OC)c(C(C)NC(=O)Nc2ccccc2)c1 (stereo not drawn) | 4.8%
5 | CCOC(=O)N1CCN(C(=O)CSCc2ccccc2C)CC1 | 2.96%
6 | Cc1cccc(C)c1NC(=O)CCn1cnc2ccccc2c1=O | 12.6%
7 | CC(C)Cc1cc(C(=O)N2CCCC(CO)(Cc3ccc(F)cc3)C2)no1 (stereo not drawn) | -10.6%
8 | COc1cccc(OCC(O)CN2CCN(c3ccccn3)CC2)c1.Cl (stereo not drawn) | -12.7%
9 | Cc1c(NC(=O)c2ccc(S(=O)(=O)N(C)c3ccccc3)cc2)c(=O)n(-c2ccccc2)n1C | 34%
10 | Cc1ccc2nc(N3C(=O)CNC3=S)sc2c1 | 30%
11 | COc1cccc(NC(=S)Nc2cc(C(=O)O)ccc2N2CC3CC(C2)c2cccc(=O)n2C3)c1 (stereo not drawn) | 11.4%
12 | S=C(Nc1ccccc1)N1CCn2c1nc1ccccc12 | -11.9%
13 | CCOC(=O)c1ccc(NC(=O)Nc2ccon2)cc1 | 6.02%
14 | O=C(c1ccc(NS(=O)(=O)c2ccc3[nH]c(=O)[nH]c3c2)cc1)N1CCCCC1 | 2.67%
15 | O=C(NCC1CCCO1)c1ccc2c(=O)n(CC3CCCO3)c(SCC(=O)N3CCCC3)nc2c1 (stereo not drawn) | 3.95%
16 | CNC(=S)Nc1cccc([N+](=O)[O-])c1 | -14.6%
17 | Nc1nnc(CC(=O)N/N=C/c2ccc(-c3ccccc3Cl)o2)s1 | 3.77%
18 | O=C(Cn1c(=O)[nH]c2ccccc2c1=O)Nc1ccc2c(c1)OCCO2 | 7.87%
19 | Cc1cccc(CN2CCN(CC(C)C)C(CCO)C2)n1 (stereo not drawn) | 17.7%
20 | CN1CCN(C(=O)/C=C/c2cccc(Cl)c2)CC1 | -6.45%
21 | Cc1nnc(SCC(=O)NC(C)(C)C)n1NCc1cccc(Br)c1 | -6.68%

Row | SMILES | hERG current change (%, negative = inhibition) at 10uM
22 | COc1cccc(NC(=O)CCSc2ccc3ccccc3n2)c1 | -13%
23 | O=C(Nc1ccc2oc(-c3ccccc3)nc2c1)c1ccccc1F | -4.55%
24 | Cc1cc(N2CCN(C)CC2)ccc1NC(=O)c1ccc(-c2ccc(Cl)cc2)o1 | -80%
25 | O=C1NC(c2ccccc2)=C(c2ccc3ccccc3n2)C(c2ccc(F)cc2)N1 (stereo not drawn) | -5.34%
26 | CCNS(=O)(=O)c1ccc(CCC(=O)N2CCN(c3ccc(OC)cc3)CC2)cc1 | -8.99%
27 | CCN(CC(=O)Nc1ccc2c(c1)OCCO2)S(=O)(=O)c1ccc(C)cc1 | -0.501%
28 | CC(C)OC(=O)CSc1nc(N)c(C#N)c(-c2cccs2)c1C#N | 10.8%
29 | Cc1ccc(NC(=O)C(C)N2C(=O)c3ccccc3C2=O)nc1 (stereo not drawn) | 28.5%
30 | CCN(CC)C(=O)CC(c1ccccc1)c1ccco1 (stereo not drawn) | 1.85%
31 | COc1ccc(N)cc1S(=O)(=O)Nc1ccccc1Cl | 18.9%
32 | O=c1c(C/C=C/c2ccccc2)c(O)ccn1CCc1c[nH]c2ccccc12 | 5.72%
33 | O=C(O)CCCC(=O)Nc1ccc(Cl)cc1 | 21.6%
34 | CC(C)C(NC(=O)c1cccc(S(=O)(=O)N2CCOCC2)c1)C(=O)NCc1ccc(Cl)cc1 (stereo not drawn) | 4.43%
35 | O=C(COc1ccccc1Cl)Nc1ccccc1C(=O)NC1CC1 | -14.9%
36 | COc1ccc(OC2CCN(S(=O)(=O)c3cccc(F)c3)CC2)cc1 | -5.81%
37 | CC(=O)c1cccc(NC(=O)CNC(=O)c2cc3ccccc3o2)c1 | -33%
38 | Cc1ccccc1N(C(=O)CNC(=O)c1ccco1)C(C(=O)NC1CCCCC1)c1ccncc1 (stereo not drawn) | -0.457%
39 | CN1C(C(=O)NCc2cccc(C(F)(F)F)c2)CC2Cn3c(nc4cc5ccccc5cc43)C21 (stereo not drawn) | -63.1%
40 | COc1ccc(CNc2ncc(-c3ccccc3)n2C)c2ccccc12.O=C(O)C(=O)O | -34.5%
41 | COc1cccc(NC(=O)Cn2cc(C#N)c3ccccc32)c1 | 1.69%
42 | Cc1ccc(C(=O)OCC(=O)N(C)c2ccccc2)c(C)c1 | 19.8%
